In assay [1] the target is T1, T6'S mutant ELIC (Dickeya chrysanthemi, UniProt P0C7B7, INS163G/T236S).
Assay [2] has as its target T2, Q2′N mutant ELIC (Dickeya chrysanthemi, UniProt P0C7B7, INS163G/Q232N).
The target of assay [3] is T2, Q2′N mutant ELIC. This is another data set of the same source.
The target of assay [4] is T1, T6'S mutant ELIC. This is another data set of the same source.

Usually EC50 stands for the concentration needed to bring the measured effect to its halfway point. Lower therefore signals higher potency in that assay. What is called pEC50 is the EC50 on a negative log10 scale, so that one unit is a factor of ten. Low values mean a large EC50, high ones a small EC50.

Turning to `NCCCC(=O)O` [GABA], at T6'S mutant ELIC [1], the 50% effective concentration (EC50) was 1800 µM and the negative logarithm of the EC50 (pEC50) was 2.75 ± 0.02. At Q2′N mutant ELIC [2], this compound gave an EC50 of 1800 µM and a negative-log EC50 (pEC50) of 2.74 ± 0.02.

Consider `O=S1OC[C@@H]2[C@H](CO1)[C@@]1(Cl)C(Cl)=C(Cl)[C@]2(Cl)C1(Cl)Cl` (stereo partly drawn) [α-endosulfan], for which the “increase of IC50 relative to wild type” value on Q2′N mutant ELIC [3] and on T6'S mutant ELIC [4] was > 10 fold in each case.

The values are drawn from publication PMC3430861, “The pharmacological profile of ELIC, a prokaryotic GABA-gated receptor” (Neuropharmacology, 2012).
